Experimental data: PubChem BioAssay AID652104 (National Center for Advancing Translational Sciences (NCATS), 2013)
About 7,200 (1.8%) of roughly 410,000 compounds were called active. The inconclusive results got no clear call from the source; some entries with a clear call stand among them for comparison. Calls follow the shape of the dose curve; as a rule, active = well fitted activation curve with a large enough effect; inconclusive = small, poorly fitted or top-dose-only effect, or another doubt; inactive = no such curve, though single readings can be large or run the other way. Potencies of inconclusive entries are left out as doubtful fits.

Assay: qHTS of TDP-43 Inhibitors; also: nearly all actives have a fitted effect of over 50% in size
Conditions: TDP-43 expressing yeast growth rescue, BacTiter-Glo, 24 h; series mostly up to 46.1 µM
How it was run: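 Luminescence from BacTiter-Glo reports growth of TDP-43-expressing yeast after 24 hr at 30 deg C with compound. Cells were raffinose-pregrown to mid-log, then seeded in galactose medium at OD600=0.02.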
Potency is read from the fitted curve at half-maximal effect; tags tell the direction and shape of the fitted curve.

Row | Structure (SMILES) | Potency
1 | O=[N+]([O-])c1cc(S(=O)(=O)C(F)(F)F)ccc1NCC1CCCO1 (stereo not given) | inconclusive [activator, single point]
2 | CCCCSc1nnc2c(n1)OC(c1ccc(C)s1)Nc1ccccc1-2 (stereo not given) | inactive
3 | CC(=O)C1=CCC(c2ccccc2)N(S(=O)(=O)c2cccc(C)c2)C1 (stereo not given) | inconclusive [activator, partial curve, poor fit]
4 | CCOC(=O)Cc1c(C)nc2c(-c3cccc(Br)c3)cnn2c1C | inactive
5 | O=C(Nc1cccc(NC(=O)c2ccc(-c3ccc(Br)cc3)o2)c1)c1ccccc1 | inactive
6 | CCn1ncc(Br)c1C(=O)Nc1ccccc1OC | inconclusive [activator, partial curve]
7 | CCn1nc(NS(=O)(=O)c2ccc([N+](=O)[O-])cc2)c2cc3cc(C)ccc3nc21 | inactive
8 | O=C(c1cccc2ccccc12)N1CCN(c2ccc([N+](=O)[O-])c(N3CCOCC3)c2)CC1 | inconclusive [activator, single point]
9 | CCOc1ccc(NC(=O)Cn2cc(C(=O)c3ccccc3)c(=O)c3cc4c(cc32)OCCO4)cc1 | inactive
10 | CCc1cccc(NC(=O)CS(=O)Cc2nc(-c3ccc(C)cc3)oc2C)c1 (stereo not given) | inconclusive [activator, single point]
11 | CC1(C)Nc2ccccc2C(=O)N1c1ccc(Br)cc1 | inconclusive [activator, single point]
12 | O=C(c1ccco1)N1CCN(C(=O)c2cc(-c3ccc(F)cc3)no2)CC1 | inconclusive [activator, single point]
13 | Cc1ccc2[nH]c3c(c2c1)CC/C(=C/c1ccccc1)C3=O | inconclusive [activator, full curve, poor fit]
14 | COc1ccc(NC(=O)c2cc(CC(C)C)on2)cc1OC | inconclusive [activator, full curve]
15 | Cc1ccc(N=C2C(=S)N(c3ccc(C)cc3)C(=N)N2/N=C/c2ccc(Cl)cc2)cc1 | inconclusive [activator, partial curve]
16 | Cc1ccc(CC2CC(=O)N(c3cc(C)ccc3C)C2=O)cc1 (stereo not given) | inconclusive [activator, partial curve]
17 | Cc1[nH]n2c(=O)c3c(nc2c1-c1ccccc1)CCC3 | inactive
18 | Cc1cc(=O)oc2cc(OCC(=O)Nc3c(C(C)C)cccc3C(C)C)ccc12 | inconclusive [activator, full curve, poor fit]
19 | O=C(OCC(=O)N1CCN(c2ccccc2)CC1)c1ccc(Cl)cc1[N+](=O)[O-] | inconclusive [activator, partial curve]
20 | Cc1ccc(C2c3[nH]c4ccccc4c3CCN2C(=O)CCc2ccccc2)cc1 (stereo not given) | inactive
21 | O=C(O/N=C(\c1ccccc1)c1ccncc1)c1ccccc1F | inconclusive [activator, single point]
22 | O=C(CCSc1nc2cc(Cl)ccc2o1)N1CCOCC1 | inactive
23 | CCC(C)c1ccc(NC(=S)NCc2ccccn2)cc1 (stereo not given) | inconclusive [activator, partial curve]

Row | Structure (SMILES) | Potency
24 | Cn1c(N)c(C(=O)COC(=O)C2CCCC2)c(=O)n(C)c1=O | inactive
25 | CCN1CCN(C(=O)Nc2cccc3ccccc23)CC1 | inconclusive [activator, partial curve]
26 | O=C(CC(NCc1cccnc1)C(=O)O)Nc1ccc(O)cc1 (stereo not given) | inactive
27 | COc1cc2cc(CN(CCc3ccccc3C)C(=S)NCCCN(C)C)c(=O)[nH]c2cc1OC | inactive
28 | CCN(CC)C(=O)COc1ccc(-c2nnc(Nc3ccc(OC)c(C(=O)NC)c3)c3ccccc23)cc1 | inconclusive [activator, partial curve]
29 | CCOC(=O)c1ccc(N=Cc2nc(-c3ccccc3)oc2OC(C)=O)cc1 | active: 15.8 µM
30 | COc1ccc(-c2cc(CNc3nc4cc(-c5ccccc5C)sc4c(=O)n3C)on2)cc1 | inactive
31 | Cc1nc(-c2cccc(NC(=O)c3ccc(-n4nccc4C)cc3)c2)cs1 | inconclusive [activator, partial curve, poor fit]
32 | COCOCCn1cc(CN2CCS(=O)(=O)N(Cc3ccc(-c4ccc(Cl)cc4)cc3)C(CC(C)C)C2=O)nn1 (stereo not given) | inconclusive [activator, single point]
33 | COc1cc(OC)cc(C(=O)N2CCN(c3ccccc3F)CC2)c1 | inconclusive [activator, single point]
34 | Cc1ccc(S(=O)(=O)N2CCC(=O)N(CCOCc3cccc(F)c3)CC2)cc1 | inconclusive [activator, partial curve]
35 | COC(=O)C=CC(=NNc1ccccc1)c1ccccc1 | inconclusive [activator, single point]
36 | Cc1nnc(Sc2cc(NCCCO)c([N+](=O)[O-])c3nonc23)s1 | inactive
37 | CCOc1ccc(N(CC(=O)NCCSCc2ccc(Cl)cc2)S(C)(=O)=O)cc1 | inactive
38 | Cc1ccc(-c2ccc(/C=N\n3cnnc3)o2)c(Br)c1 | inconclusive [activator, single point]
39 | COc1ccnc(N2CCN(c3ccccc3)CC2)c1C#N | inconclusive [activator, single point]
40 | Fc1ccccc1Nc1ncnc2c1nc1n2CCCCC1 | inconclusive [activator, full curve]
41 | CCn1nc(C)c2c(-c3ccccc3)cc(=O)n(C(C)C(=O)NCCc3ccccc3)c21 (stereo not given) | inconclusive [activator, single point]
42 | O=C(CCn1ccc2cc(S(=O)(=O)N3CCCC3)ccc21)NCc1ccccc1Cl | inactive
43 | Cc1ccnc2c(N3C(=O)C4C5C=CC(C5)C4C3=O)cccc12 (stereo not given) | inactive
44 | COC(=O)c1c(C)[nH]c(C(=O)OC(C)C(=O)N(C)C2CCCCC2)c1C (stereo not given) | inconclusive [activator, partial curve]
45 | Clc1cccc(-c2cc3nc(NCCOc4ccccc4)ccn3n2)c1 | inactive
